From PubChem BioAssay AID1347165 (National Center for Advancing Translational Sciences (NCATS), 2019)
About 5,700 (2.6%) of roughly 220,000 compounds were called active. This list was built around the results that the source calls inconclusive (neither active nor inactive); the mix of calls is not that of the screen. Calls come from the whole dose curve; as a rule, active = well fitted inhibition curve with a large enough effect; inconclusive = small, poorly fitted or top-dose-only effect; inactive = no such curve, though single readings can be large or run the other way. Where the call is inconclusive, the potency comes from a doubtful curve fit.

The molecules below were run against Lysine-specific demethylase 5B (Homo sapiens) (UniProt Q9UGL1) (assay: Primary screen for KDM5B Histone Demethylases FDH-coupled qHTS). Details: FDH-coupled NADH fluorescence (FDH is formaldehyde dehydrogenase); series mostly up to 57.7 µM.
Sequence of UniProt Q9UGL1 (Q9UGL1 whole entry, looked up): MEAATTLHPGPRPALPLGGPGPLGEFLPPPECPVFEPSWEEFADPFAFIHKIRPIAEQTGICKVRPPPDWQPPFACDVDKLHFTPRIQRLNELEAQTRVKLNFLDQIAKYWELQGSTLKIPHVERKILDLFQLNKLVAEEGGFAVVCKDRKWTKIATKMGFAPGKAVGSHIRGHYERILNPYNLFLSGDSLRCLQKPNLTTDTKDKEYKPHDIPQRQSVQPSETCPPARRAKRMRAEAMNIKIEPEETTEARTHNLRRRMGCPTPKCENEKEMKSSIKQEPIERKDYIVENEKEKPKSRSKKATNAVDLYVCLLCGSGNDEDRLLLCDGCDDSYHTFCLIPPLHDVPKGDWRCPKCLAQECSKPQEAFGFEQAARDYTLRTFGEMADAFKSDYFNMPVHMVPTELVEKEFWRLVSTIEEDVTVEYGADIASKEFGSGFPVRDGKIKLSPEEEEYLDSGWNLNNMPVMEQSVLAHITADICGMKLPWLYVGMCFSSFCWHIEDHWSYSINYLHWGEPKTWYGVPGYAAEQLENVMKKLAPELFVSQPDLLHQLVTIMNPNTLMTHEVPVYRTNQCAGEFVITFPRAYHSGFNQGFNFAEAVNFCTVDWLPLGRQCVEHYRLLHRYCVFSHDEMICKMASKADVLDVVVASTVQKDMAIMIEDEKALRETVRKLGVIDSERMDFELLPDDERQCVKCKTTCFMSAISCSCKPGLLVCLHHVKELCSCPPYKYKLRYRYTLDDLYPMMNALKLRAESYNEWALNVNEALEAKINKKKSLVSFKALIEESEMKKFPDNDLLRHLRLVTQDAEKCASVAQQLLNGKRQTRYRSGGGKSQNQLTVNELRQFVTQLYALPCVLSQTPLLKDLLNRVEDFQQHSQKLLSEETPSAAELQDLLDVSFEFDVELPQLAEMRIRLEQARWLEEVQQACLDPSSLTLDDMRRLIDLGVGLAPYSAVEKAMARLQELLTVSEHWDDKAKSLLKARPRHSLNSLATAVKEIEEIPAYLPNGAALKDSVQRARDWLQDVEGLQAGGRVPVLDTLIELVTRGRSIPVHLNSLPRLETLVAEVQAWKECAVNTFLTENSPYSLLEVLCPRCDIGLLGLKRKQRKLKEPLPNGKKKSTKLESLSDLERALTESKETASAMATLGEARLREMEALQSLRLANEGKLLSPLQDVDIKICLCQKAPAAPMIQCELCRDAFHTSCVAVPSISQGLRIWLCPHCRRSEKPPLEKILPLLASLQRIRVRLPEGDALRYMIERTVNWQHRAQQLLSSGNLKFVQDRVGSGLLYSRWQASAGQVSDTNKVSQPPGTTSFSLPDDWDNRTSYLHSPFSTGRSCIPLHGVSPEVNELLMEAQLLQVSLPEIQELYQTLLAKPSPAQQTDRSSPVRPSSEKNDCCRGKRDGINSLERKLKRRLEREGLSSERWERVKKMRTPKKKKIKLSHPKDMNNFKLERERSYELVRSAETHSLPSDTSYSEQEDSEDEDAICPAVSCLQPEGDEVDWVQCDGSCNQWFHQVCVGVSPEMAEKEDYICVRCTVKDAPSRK
Procedure, shortened: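 Here, H3K4me3 peptide (12.5 µM in substrate mix) is demethylated by KDM5BΔAP, 200 nM final, after 10 min compound exposure. Formaldehyde product is coupled through FDH (0.25 U/mL in mix) to NADH fluorescence; 30-min ΔRFU feeds dose-response curves.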
Note: nearly all actives have a fitted effect of over 70% in size.
Potency is the fitted concentration of half-maximal effect; tags give direction and shape of the fitted curve.

Row | SMILES | Potency
1 | CC1=C(c2ccc(C)c(C)c2)S(=O)(=O)N(CC(=O)NCc2ccccc2)C1=O | inconclusive: 31.6 µM [inhibitor, single point]
2 | COc1ccccc1N1CCN([C@H]2[C@@H]3OC[C@@H](O3)[C@@H](NCc3ccncc3)[C@@H]2O)CC1 | inconclusive: 28.2 µM [inhibitor, single point]
3 | Clc1ccccc1C1(c2ccnc(NCc3ccccn3)n2)CCNCC1 | inconclusive: 25.1 µM [inhibitor, single point]
4 | O=C(C1CCOCC1)N1CCC(N2CC3CC(C2)[C@H]2CCCC(=O)N2C3)CC1 (some centres undefined) | inconclusive: 25.1 µM [inhibitor, partial curve, poor fit]
5 | COCCNc1oc(-c2cccc(Cl)c2)nc1S(=O)(=O)c1ccc2c(c1)OCCO2 | inconclusive: 39.8 µM [inhibitor, single point]
6 | COCCn1c(=O)c2c(n1Cc1ccccc1)CN(Cc1cccnc1OC)CC2 | active: 35.5 µM
7 | CCCn1c(CCC(=O)Nc2cc(OC)cc(OC)c2)nc2cccnc21 | inactive
8 | O=C(c1cnccn1)N1CCC(NCc2cc3n(n2)CCCNC3)CC1 | inconclusive: 3.55 µM [inhibitor, full curve]
9 | Cc1cccc(CNC(=O)c2ccc3c(c2)N(C)C2CCCN2C3=O)c1 (centres undefined) | inconclusive: 28.2 µM [inhibitor, partial curve, poor fit]
10 | CCCn1c(CCC(=O)Nc2cc(C(=O)OC)cc(C(=O)OC)c2)nc2cccnc21 | inconclusive: 31.6 µM [inhibitor, partial curve, poor fit]
11 | O=C(CN1CCCc2nc(C3CC3)ncc2C1=O)NCc1cccs1 | inconclusive: 35.5 µM [inhibitor, partial curve, poor fit]
12 | CCCOc1ccccc1C(C)Nc1nc(-c2cccnc2)nc2c1CNC2 (centres undefined) | inactive
13 | Cc1cccc(/C=C/C(=O)O)c1 | inactive
14 | Cc1cccc2[nH]c(C(=O)O)cc12 | inconclusive: 31.6 µM [inhibitor, partial curve, poor fit]
15 | Cc1cccc(/C=C(/C(=O)O)c2cccs2)c1 | inactive
16 | COc1ccccc1-c1cnc2n[nH]c(-c3ccc(F)cc3C)c2n1 | inconclusive: 7.08 µM [inhibitor, partial curve, poor fit]
17 | Cc1ccc2[nH]c(-c3ccccc3)cc2c1 | inconclusive: 14.1 µM [inhibitor, partial curve, poor fit]
18 | Cc1oc2ccn(Cc3ccccc3F)c(=O)c2c1C(=O)NCc1cccc(Cl)c1 | inconclusive: 15.8 µM [inhibitor, partial curve]
19 | CCCCN(CCCC)CCCNC(=O)Cn1cc2c(n1)-c1c(oc(C(=O)N3CCCC3)c1C)CC2 | inconclusive: 17.8 µM [inhibitor, partial curve, poor fit]
20 | CC(=O)N1C[C@@H]2CCCN3CCC[C@@H]([C@H]23)[C@H]1CCCC(=O)NCCCN1CCCC1=O | inconclusive: 25.1 µM [inhibitor, single point]
21 | Cc1ccccc1-c1noc(CSc2nc(C)c(C)n2C2CCCC2)n1 | inactive
22 | OCCCNC(=S)NCCSc1ccccc1 | inactive

Row | SMILES | Potency
23 | COc1ccc(-c2nc(Cc3ccccc3Cl)no2)cc1OC | inconclusive: 39.8 µM [inhibitor, single point]
24 | CC1(COc2ccccc2)COc2ccc(C(=O)NCc3cccc(F)c3)cc2N1 (centres undefined) | active: 31.6 µM
25 | CN1c2cc(C(=O)NCCCc3ccccc3)ccc2C(=O)N2CCCCC21 (centres undefined) | inconclusive: 20 µM [inhibitor, partial curve, poor fit]
26 | COc1ccc(OCC(O)Cn2c(NCCc3ccccc3)nc3c2c(=O)n(C)c(=O)n3C)cc1 (centres undefined) | inactive
27 | CN(C)CCCNC(=O)c1ccc2c(c1)N(S(C)(=O)=O)CC2 | inconclusive: 20 µM [inhibitor, single point]
28 | O=C1NCc2ccccc2CC12CCCN2Cc1cccc(Br)c1 (centres undefined) | inconclusive: 31.6 µM [inhibitor, partial curve, poor fit]
29 | CCCC(=O)Nc1cc2nn(-c3ccccc3)nc2cc1C | inconclusive: 5.01 µM [inhibitor, partial curve, poor fit]
30 | O=C(C1CCCC1)N1Cc2ccccc2CC2(CCN(Cc3ccncc3)CC2)C1 | inconclusive: 56.2 µM [inhibitor, partial curve]
31 | CN(C)CCNC(=O)C[C@H]1NC(=O)c2ccccc2NC1=O | inactive
32 | Cc1c(Cc2ccccc2)c(=O)oc2c(C)c(OCC(=O)NC(C)C)ccc12 | inactive
33 | CCc1cc(=O)oc2cc(OCc3nc(C)no3)ccc12 | inactive
34 | O=C(NCCc1ccccc1)N1CCC2(CC1)CC(N1CCCC1)CCO2 (centres undefined) | inconclusive: 7.94 µM [inhibitor, partial curve, poor fit]
35 | O=C(Cn1ccn2nc(-c3ccc(F)cc3)c(CO)c2c1=O)NCc1ccc(F)cc1Cl | inconclusive: 31.6 µM [inhibitor, single point]
36 | Cc1ccccc1CSc1nnc2[nH]c(=O)cc(-c3ccccc3)n12 | inconclusive: 31.6 µM [inhibitor, single point]
37 | CCOC(=O)c1ccccc1NC(=O)Cn1ncc2c1-c1ccccc1OC2 | inconclusive: 35.5 µM [inhibitor, partial curve, poor fit]
38 | Cc1cc(C)cc(NC(=O)CSc2oc(-c3ccccc3)nc2S(=O)(=O)c2ccc(Cl)cc2)c1 | inconclusive: 12.6 µM [inhibitor, partial curve, poor fit]
39 | CN1CCc2c(sc(NC(=O)Nc3ccc(Cl)cc3)c2C(N)=O)C1 | inconclusive: 20 µM [inhibitor, single point]
40 | COC(=O)[C@H](Cc1ccc(OC)cc1)NC(=O)[C@@H]1CN(C(=O)NC(C)C)CCN1C(=O)C1CCCCC1 | inactive
41 | COc1ccc(NC(=O)c2nn(-c3ccccc3C)c(=O)cc2OC)cc1 | inactive
42 | NC(=O)NC(=O)COC(=O)c1cc(-c2ccco2)nc2ccccc12 | inconclusive: 39.8 µM [inhibitor, partial curve, poor fit]
43 | C[N+](C)(C)CC(=O)N1CCN(c2ccc3ccccc3n2)CC1 | inconclusive: 31.6 µM [inhibitor, partial curve, poor fit]
44 | COc1ccc2c(C)c(-c3ccc(OC)c(OC)c3)c(=O)oc2c1 | inconclusive: 39.8 µM [inhibitor, single point]

Row | SMILES | Potency
45 | CNC(=O)COC(=O)c1cc(-c2ccco2)nc2ccccc12 | inconclusive: 25.1 µM [inhibitor, partial curve, poor fit]
46 | Cc1ccc(C(=O)NC(C(=O)N2CCCCC2)C2CCN(S(=O)(=O)C(C)C)CC2)cc1 (centres undefined) | inactive
47 | CN1c2cc(C(=O)NCc3ccc(F)cc3)ccc2C(=O)N2CCCC21 (centres undefined) | inconclusive: 28.2 µM [inhibitor, partial curve, poor fit]
48 | COc1ccc(N2CC3(COCC2=O)CN(c2ccc(C(F)(F)F)cn2)C3)cn1 | inconclusive: 35.5 µM [inhibitor, partial curve, poor fit]
49 | CCN(CC)c1ccc(CC2C(=O)N(C)c3ccc(Br)cc32)cc1 (centres undefined) | inconclusive: 12.6 µM [inhibitor, partial curve, poor fit]
50 | COc1ccc(-c2nc3ccccc3n3c(-c4cccc(C)c4)c4c(=O)n(C)c(=O)n(C)c4c23)cc1OC | inconclusive: 17.8 µM [inhibitor, partial curve, poor fit]
51 | O=C1CCN(S(=O)(=O)c2cccs2)CCCC(CO)CCN1 (centres undefined) | inconclusive: 17.8 µM [inhibitor, single point]
52 | CC(=O)c1ccc(S(=O)(=O)N2CCn3cccc3C2c2ccccc2F)cc1 (centres undefined) | inconclusive: 10 µM [inhibitor, partial curve, poor fit]
53 | Nc1ccc2c(c1)C(=O)OC2 | inactive
54 | CC(Sc1nc2ccccc2o1)C(=O)C12CC3CC(CC(C3)C1)C2 (centres undefined) | inconclusive: 39.8 µM [inhibitor, single point]
55 | CCOC(=O)c1ccccc1NC(=O)CN(c1cccc(C)c1C)S(=O)(=O)c1ccccc1 | inconclusive: 25.1 µM [inhibitor, partial curve, poor fit]
56 | CC(=O)Nc1ccc(NC(=O)CCc2nc(-c3ccc(C)n(C(C)C)c3=O)no2)cc1 | inactive
57 | COC(=O)[C@@H]1Cc2c([nH]c3ccccc23)[C@@H]2C[C@@H](NCCCn3ccnc3)C[C@@H](c3ccc(F)c(F)c3)N12 | inconclusive: 7.08 µM [inhibitor, partial curve]
58 | CC(C)N1CCC(CNC(=O)c2cc3ccccc3n2C)C1 (centres undefined) | inactive
59 | COc1ccc(CNC(=O)c2cc3c(=O)n(Cc4cccnc4)ccc3nc2C)cc1 | inconclusive: 28.2 µM [inhibitor, partial curve, poor fit]
60 | Cc1ccc2[nH]nc(C(=O)N3C[C@@H](C(=O)O)[C@H](c4ccc(F)cc4)C3)c2c1 | inconclusive: 31.6 µM [inhibitor, partial curve, poor fit]
61 | OCCNCCSc1nc(C2CCCCC2)n(-c2ccccc2Cl)n1 | inconclusive: 39.8 µM [inhibitor, single point]
62 | COc1ccccc1CCNC(=O)Cc1ccc(NC(=O)N2CCSc3ncccc32)cc1 | inconclusive: 2 µM [inhibitor, partial curve, poor fit]
63 | Cc1cccc(-c2nc(Nc3ccc(C(=O)O)cc3)c3ccccc3n2)c1 | inactive
64 | COc1cc2c(cc1OC)-c1c(c(C(=O)N3CCC(C(N)=O)CC3)nn1-c1cccc(Cl)c1)C2 | inconclusive: 1.78 µM [inhibitor, partial curve, poor fit]
